Laboratory results as given in PubChem BioAssay AID686970 (National Center for Advancing Translational Sciences (NCATS), 2013).
Where “and” joins values, the source holds several entries; their conditions need not be identical. Identical values can stand only once. In all, about 360,000 compounds went through this assay and about 6,000 (1.7%) were called active. The inconclusive results got no clear call from the source; some entries with a clear call stand among them for comparison. Calls follow the shape of the dose curve; as a rule, active = well fitted cell-killing curve with a large enough effect; inconclusive = small, poorly fitted or top-dose-only effect, or effect the other way; inactive = flat fitted curve, though single readings scatter. Potencies beside an inconclusive call are fits to weak or partial responses and may not hold up.

Assay: qHTS for induction of synthetic lethality in tumor cells producing 2HG: qHTS for the HT-1080-NT fibrosarcoma cell line;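 also: NT is the 2HG producing partner of a matched IDH1 knockdown line; nearly all actives have a fitted effect of over 55% in size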;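 as to activity, negative = less viability: 0% = DMSO-treated cells and -100% = media-only wells without cells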
Conditions: HT-1080-NT fibrosarcoma viability, CellTiter-Glo ATP luminescence, 48 h; activity, negative = less viability: at 46.1 µM (top of the series) unless noted
Outline: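 HT-1080-NT; 750 cells/well; 5% FBS RPMI; 48 h compound, 37 degrees C; CellTiter-Glo luminescence; curve fitting and curve-class assignment.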
Potency is read from the fitted curve at half-maximal effect; tags tell the direction and shape of the fitted curve.

SMILES | Potency | activity, negative = less viability
Nc1c(C(=O)Nc2ccc(S(=O)(=O)N3CCCC3)cc2)sc2nc3ccc(OC(F)(F)F)cc3cc12 | inconclusive: 3.66 µM [cytotoxic, full curve] | 
COc1ccc2cc([C@@H](C)C(=O)O)ccc2c1 |  | inconclusive: -23.3% [cytotoxic]
Cc1cccc(NC(=O)c2ccc(NC(C)c3ccccc3)c([N+](=O)[O-])c2)n1 (stereo unspecified) |  | inactive: 14%
Cc1csc(-c2cc(C(=O)NCc3ccc(F)cc3)n[nH]2)c1 |  | inactive: -4.11%
COc1ccc(/C(C)=N/NC(=S)NCCc2ccccc2)c(O)c1 | inconclusive: 8.2 µM [cytotoxic, partial curve, poor fit] | 
CN(CC(=O)Nc1cccc(Cl)c1)S(=O)(=O)c1ccc2c(c1)n(C)c(=O)c(=O)n2C |  | inactive: -5.9%
Cc1ccc(C(=O)O/N=C(\N)Cc2cccc3ccccc23)cc1 | inconclusive: 23.1 µM [cytotoxic, partial curve] | 
Cc1ccc(NC(=O)COC(=O)c2ccccc2Cl)cc1S(=O)(=O)N(C)C |  | inactive: -3.26%
CSc1nc(Cl)cc(Nc2ccc(O)cc2)n1 | active: 16.4 µM | 
CCOC(=O)c1nnn(-c2nonc2-n2cccc2)c1CCl | inconclusive: 18.4 µM [cytotoxic, single point] | 
Cn1nc(C(C)(C)C)cc1C(=O)N1CCCCC1c1cc(C(=O)Nc2ccccc2Cl)no1 (stereo unspecified) | inconclusive: 29.1 µM [cytotoxic, single point] | 
Cc1nnc2n(c1=O)C(CS(=O)(=O)c1ccccc1)CS2 (stereo unspecified) |  | inactive: -8.21%
COc1ccc(/C=C/C(=O)OCC(=O)Nc2ccc3c(c2)OCO3)cc1 |  | inactive: 0.54%
CCOc1ccc(NC(=O)COc2cccc3cccnc23)cc1S(=O)(=O)N1CCCC1 |  | inactive: -14.4%
O=C(Nc1ccc2c(c1)Cc1ccccc1-2)c1cc2ccccc2o1 | inconclusive: 32.6 µM [cytotoxic, single point] | 
CCCCCCn1c(=O)n2n(c1=O)C[C@]1(OC(=O)NCc3ccco3)CN(S(=O)(=O)c3ccc(C)cc3)C[C@]1(O)C2 |  | inactive: -0.792%
COc1ccccc1C(=O)Nc1ccnn1C1CCN(Cc2cn(C)c3ccccc23)CC1 | inconclusive: 18.4 µM [cytotoxic, single point] | 
COc1ccc(NC(=O)c2nc(C)c(C3(C)CC(c4cccnc4)=NO3)s2)cc1 (stereo unspecified) | inconclusive: 8.2 µM [cytotoxic, partial curve] | 
O=C(c1cccc2ccccc12)C1CCCN(C(=O)c2ccc(N3CCOCC3)cc2)C1 (stereo unspecified) | inconclusive: 18.4 µM [cytotoxic, single point] | 
CCOC(=O)[C@]12CCC=C1N(Cc1ccccc1)C(=O)[C@H](CC(=O)NCCCCc1ccccc1)C2 | inconclusive: 18.4 µM [cytotoxic, single point] | 
CN1N=C(C(=O)NC2CCCc3c2cnn3-c2ccc(F)cc2F)CCC1=O (stereo unspecified) | inconclusive: 18.4 µM [cytotoxic, single point] | 
COc1ccc(C(=O)NNC(=O)C(=O)Nc2cccc3ccccc23)cc1 |  | inactive: -3.71%
CCCCNC(=O)CCN1N=C(c2ccccc2)CCC1=O |  | inactive: 6.93%
CCCc1ccc2oc(C(=O)N3CCN(c4cnccn4)CC3)c(C)c2c1 |  | inactive: -10.6%

SMILES | Potency | activity, negative = less viability
COc1ccc(Nc2nccc(-c3cccc(N)c3)n2)cc1 | inconclusive: 18.4 µM [cytotoxic, single point] | 
COC(=O)CC1=NN(c2ccccc2)C(=O)C1 |  | inactive: 9.15%
CON=C(C(=O)NC1C(=O)N2C(C(=O)O)=C(CSc3nc(=O)c(=O)[nH]n3C)CSC12)c1csc(N)n1 (stereo unspecified) | inconclusive: 10.3 µM [rising, single point] | 
O=C1CC/C=C\C[C@@H](CC(=O)N(CCO)Cc2ccccc2)C(=O)N[C@H](Cc2c[nH]c3ccccc23)CO1 | inconclusive: 29.1 µM [rising, single point] | 
Oc1ccccc1C(Nc1nccs1)c1ccc2cccnc2c1O (stereo unspecified) | inconclusive: 2.91 µM [cytotoxic, full curve, poor fit] | 
Cc1ccc(NC(=O)Cn2c(/C=C/c3ccccc3)nc3ccccc32)cc1C | inconclusive: 20.6 µM [cytotoxic, single point] | 
Cc1ccc(-c2nn3c(C)nnc3s2)cc1NC(=O)c1ccc(-c2cccc(Cl)c2)o1 | inconclusive: 35.5 µM [cytotoxic, single point] and inconclusive: 29.1 µM [cytotoxic, single point] | 
COc1cccc(/C(O)=C/c2nc3ccc(C(=O)NCCc4ccc(Cl)cc4)cc3[nH]c2=O)c1 | active: 18.4 µM | 
C/C(=N/NC(=O)c1ccc(C)nc1)c1ccc2c(c1)CCCC2 | active: 16.4 µM | 
O=C(Nc1ccc(C(=O)N2CCCCC2)cc1)C1CC1 |  | inactive: 28.5%
Cn1c(SCc2nc(-c3ccccc3)no2)nnc1-c1ccco1 |  | inactive: 7.21%
CC(=O)n1cc(N(C(=O)CCl)c2ccccc2)c2ccccc21 | active: 2.59 µM | 
COc1ccccc1N1CCN(C(=O)c2ccc(Cl)c(S(=O)(=O)NCc3ccco3)c2)CC1 | active: 8.91 µM | 
CC(C)(C)NC(=O)C(c1ccncc1)N(Cc1cccs1)C(=O)Cn1nnc(-c2cccs2)n1 (stereo unspecified) | inconclusive: 7.94 µM [cytotoxic, partial curve] | 
O=C(COC(=O)Cn1cnc2ccccc21)Nc1ccc(OC(F)F)cc1 |  | inactive: -2.89%
N#C/C(=C\c1cc([N+](=O)[O-])ccc1Cl)C(N)=O | inconclusive: 13 µM [cytotoxic, single point] | 
O=C(/C=C\c1cccs1)c1c(O)ccc2ccc(=O)oc12 | inconclusive: 16.4 µM [cytotoxic, single point] | 
O=C(CCC1CCN(C(=O)c2ccccc2Cl)CC1)NCc1ccc(F)cc1 |  | inactive: 3.96%
C/C(=N\Nc1ccc([N+](=O)[O-])cc1)c1ccc(N)cc1 | inconclusive: 16.4 µM [cytotoxic, partial curve] | 
COc1cc([N+](=O)[O-])cc(/C=N/NC(=O)Cn2nc(C)cc2C)c1O | inconclusive: 29.1 µM [cytotoxic, single point] | 
Cc1ccc(CNc2nc3cc(-c4ccccc4C)sc3c(=O)n2C)c(C)c1 | inconclusive: 14.6 µM [cytotoxic, partial curve, poor fit] | 
Cc1ccc(N(Cc2cc(=O)[nH]c3ccccc23)C(=O)CCl)cc1 | inconclusive: 23.1 µM [cytotoxic, single point] | 
Cn1ncc2c(Nc3ccc4ccccc4c3)ncnc21 | inconclusive: 35.5 µM [cytotoxic, single point] | 
CCCc1nc2ccccc2c(C(=O)OCC(=O)Nc2ccc(S(=O)(=O)N3CCOCC3)cc2)c1CC | inconclusive: 15.8 µM [cytotoxic, single point] | 

SMILES | Potency | activity, negative = less viability
N#C/C(=C(/O)CCl)c1nc2ccccc2[nH]1 | inconclusive: 20.6 µM [cytotoxic, single point] | 
CCN1CCN(CCCNC(=O)c2ccc3c(Cl)c4c(nc3c2)CCCC4)CC1 | active: 25.9 µM | 
O=C(COc1ccccc1)NCc1nnc2c3ccccc3c(-c3ccccc3)nn12 |  | inactive: -15.1%
CC1=CC(C)(C)Nc2ccccc21 | inconclusive: 29.1 µM [cytotoxic, single point] | 
Cn1cnnc1SCC(=O)Nc1cccc(S(=O)(=O)N2CCCCCC2)c1 |  | inactive: 1.68%
Nc1ccc2c(c1)C(=O)c1cc(N)c(Cl)cc1-2 | inconclusive: 4.61 µM [cytotoxic, full curve, poor fit] | 
CC1CCN(C(=O)COC(=O)C2CCN(S(=O)(=O)c3ccc(Cl)c(C(F)(F)F)c3)CC2)CC1 |  | inactive: 3.65%
Cn1ncc([N+](=O)[O-])c1C(=O)Nc1ccc(-c2nc3ccccc3[nH]2)cc1 | inconclusive: 15.8 µM [cytotoxic, single point] | 
O=C(NCC1CCCCC1)c1cc(-c2cc(F)ccc2OCC2CCCO2)n[nH]1 (stereo unspecified) | inconclusive: 18.4 µM [cytotoxic, single point] | 
CCOC(=O)N1CCN(S(=O)(=O)c2ccc(C(=O)NNc3nc4ccc(Cl)cc4s3)cc2)CC1 | inconclusive: 8.2 µM [cytotoxic, partial curve] | 
CC1S/C(=C(\C#N)C(N)=O)N(c2ccc(F)cc2)C1=O (stereo unspecified) |  | inactive: -12.3%
CN(CCCNC(=O)c1cccn2c(=O)c3ccccc3nc12)Cc1ccccc1 | inconclusive: 22.4 µM [cytotoxic, single point] | 
O=C(COC(=O)CN1C(=O)c2ccccc2C1=O)Nc1ccccc1C(F)(F)F |  | inactive: -0.349%
Cc1cc(C)n2nc(-c3ccc(F)cc3)cc2n1 |  | inactive: -1.74%
CCOC(=O)C(CC)n1cnc2c(nnn2-c2ccc(F)cc2)c1=O (stereo unspecified) |  | inactive: 2.07%
Cc1cc(NC(=O)c2cc([N+](=O)[O-])ccc2Cl)no1 | inconclusive: 29.1 µM [cytotoxic, single point] | 
Cc1cc(C)nc(NC(N)=NCCc2c[nH]c3ccccc23)n1 |  | inactive: -13%
CN1Cc2cccc3c2C(Cc2ccccc2S3)C1 (stereo unspecified) | inconclusive: 29.1 µM [cytotoxic, single point] | 
Cc1cc(NC(=O)/C=C/c2ccccc2Cl)n(-c2nc3ccccc3[nH]2)n1 | inconclusive: 20.6 µM [cytotoxic, single point] | 
C#CCN(C[C@@H]1[C@@H](OC(=O)NC2CCCC2)[C@@H](OC(=O)NC2CCCC2)Cn2c(=O)ccc(=O)n21)S(=O)(=O)c1ccc(C)cc1 | active: 7.31 µM | 
CCN(CC)S(=O)(=O)c1cc(C(=O)Nc2ccncc2)ccc1Cl |  | inactive: 0%
CCOC(CCn1c(SCc2cccc([N+](=O)[O-])c2)nc2ccccc2c1=O)OCC | inconclusive: 9.2 µM [cytotoxic, partial curve, poor fit] | 
Cc1nc(N=C(N)N)nc2c(C)cccc12 | active: 10.3 µM | 
